Source: paper PMC4336329 (PLoS ONE, 2015)
Hit rate of the full screen: of about 310,000 compounds, about 14,000 (4.5%) showed an effect of 50% or more. Effects have a minus sign here. This is one part of the list.

The compounds below were run against human ether-à-go-go-related gene (hERG) potassium channel (human, UniProt Q12809) (assay: primary screen, population patch clamp on CHO cells stably expressing hERG).
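Further: peak tail current of the secondary pulse compared with the same well before compound.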

Chain of human ether-à-go-go-related gene (hERG) potassium channel (Q12809 whole entry, looked up): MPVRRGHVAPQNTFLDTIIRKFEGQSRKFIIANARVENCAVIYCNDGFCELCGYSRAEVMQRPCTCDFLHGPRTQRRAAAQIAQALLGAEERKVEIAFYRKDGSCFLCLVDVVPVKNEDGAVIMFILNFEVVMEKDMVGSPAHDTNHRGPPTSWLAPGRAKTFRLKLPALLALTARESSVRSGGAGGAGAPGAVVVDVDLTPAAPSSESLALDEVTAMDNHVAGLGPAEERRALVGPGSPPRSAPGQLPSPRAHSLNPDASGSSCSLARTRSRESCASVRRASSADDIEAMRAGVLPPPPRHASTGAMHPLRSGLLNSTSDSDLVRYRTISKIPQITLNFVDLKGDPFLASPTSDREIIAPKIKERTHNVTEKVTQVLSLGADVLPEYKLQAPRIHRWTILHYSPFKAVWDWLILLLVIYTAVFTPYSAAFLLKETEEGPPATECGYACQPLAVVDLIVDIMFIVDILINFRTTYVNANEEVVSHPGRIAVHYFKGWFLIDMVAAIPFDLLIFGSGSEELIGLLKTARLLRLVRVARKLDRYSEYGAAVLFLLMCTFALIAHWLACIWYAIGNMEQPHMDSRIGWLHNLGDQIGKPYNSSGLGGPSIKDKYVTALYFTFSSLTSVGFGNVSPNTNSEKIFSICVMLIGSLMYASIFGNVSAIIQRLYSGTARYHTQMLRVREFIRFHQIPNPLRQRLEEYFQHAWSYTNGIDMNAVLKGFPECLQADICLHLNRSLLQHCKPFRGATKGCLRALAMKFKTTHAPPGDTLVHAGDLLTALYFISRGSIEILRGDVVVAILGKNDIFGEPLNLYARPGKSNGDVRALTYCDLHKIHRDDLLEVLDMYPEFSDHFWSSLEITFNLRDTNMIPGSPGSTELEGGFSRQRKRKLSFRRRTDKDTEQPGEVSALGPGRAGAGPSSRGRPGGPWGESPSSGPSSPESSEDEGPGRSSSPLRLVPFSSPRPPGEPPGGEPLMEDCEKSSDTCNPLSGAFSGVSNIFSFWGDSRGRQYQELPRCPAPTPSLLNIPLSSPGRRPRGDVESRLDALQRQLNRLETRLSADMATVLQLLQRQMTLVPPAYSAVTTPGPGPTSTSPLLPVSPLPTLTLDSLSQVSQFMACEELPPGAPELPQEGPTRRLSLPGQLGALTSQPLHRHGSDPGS

SMILES | hERG current change (%, negative = inhibition) at 10uM [%]
O=C(N/N=C/c1ccco1)c1ccc(NC(=O)c2ccc(Cl)cc2)cc1 | 18.7
COc1ccc(-c2cc(=O)oc3c(C)c(OC(=O)c4cccs4)ccc23)cc1 | 9.83
CC(C)CN(C(=O)COC(=O)c1ccc2c(c1)OCCO2)c1c(N)n(Cc2ccccc2)c(=O)[nH]c1=O | 5.66
CCN1CCN(C(=O)C2CCN(C(=O)c3cc4sccc4n3CC)CC2)CC1 | -2.39
O=c1c2c3c(sc2[nH]c(=S)n1Cc1ccco1)CCC3 | 6.17
CNC(=S)N1N=C(c2ccc(C)cc2)CC1c1ccc(N(C)C)cc1 (centres unmarked) | 11.8
O=C(CSc1ccc(Cl)cc1)NNC(=O)c1cccnc1 | -21
O=C1C=C(c2cccc3c2oc2ccccc23)C[C@@H](c2ccc(F)cc2)C1 | -7.14
Cc1ccc(Cn2nc(C)c(NC(=O)c3cc(-c4ccco4)on3)c2C)cc1 | -0.924
Fc1ccc(-n2cc(CNCCc3cccnc3)c(-c3ccccc3Cl)n2)cc1 | -51.9
CCCCn1c(N)c(N(CCC(C)C)C(=O)c2cc(Cl)nc3ccccc23)c(=O)[nH]c1=O | 15.2
Cc1ccc(/C=N/n2c(C)nc3ccccc3c2=O)o1 | 10.9
CCC(C)NC(=O)[C@H](CSCc1ccccc1)N1Cc2ccccc2C1=O (some centres unmarked) | -36.2
CC1=CCC2C(=O)N(c3cccc(C(=O)NC(C)c4ccccc4)c3)C(=O)C2C1 (centres unmarked) | -4.98
C#CCSc1nnc(-c2c[nH]c3ccccc23)n1C | 16.3
CCCC1=C(C(=O)OCC)C(c2ccco2)n2ncnc2N1 (centres unmarked) | 2.43
CC1CCCCC1NC1=NCCCS1 (centres unmarked) | 18.9
Cc1sc(N/N=C/c2cccnc2)nc1-c1ccc(Cl)cc1 | 13.3
CC1CN(S(=O)(=O)c2ccc(C(=O)O)cc2)CC(C)O1 (centres unmarked) | 19.3
O=C(Nc1cccc2c1CCCC2)c1cc([N+](=O)[O-])ccc1Cl | -9.88
CN(C)Cc1nc2c(c(=O)[nH]1)C(C)(C)Cc1ccccc1-2 | -7.33
O=C(c1ccccc1)N1CCN(C(=O)c2ccc([N+](=O)[O-])cc2)CC1 | -53.9
CCCCn1c(O)c(C(CC)=Nc2ccc(OC)cc2OC)c(=O)[nH]c1=O | -13.8

SMILES | hERG current change (%, negative = inhibition) at 10uM [%]
Fc1ccc(-c2noc(-c3ccc4c(c3)CCO4)n2)cc1 | 8.19
Cc1ccc2oc(=O)c3cnn(CC(=O)NCCc4ccsc4)c3c2c1 | -12.2
Cc1csc(NC(=O)c2ccc3c(=O)n4c(nc3c2)CCCCC4)n1 | -80.3
COc1ccc(C(=O)CN2CCN(c3cc(C)nc4ccccc34)CC2)cc1 | -68.8
CC(NC(=O)c1nn(C)c(=O)c2ccccc12)c1ccccc1 (centres unmarked) | -13.1
CCOc1cccc(-c2c(C(=O)N/N=C/c3ccc(C)o3)nnn2-c2nonc2N)c1 | 15.2
COc1ccc(N2C(=O)CCC(C(=O)N(C)CCc3ccccn3)C2c2ccc(OC)c(OC)c2)cc1 (centres unmarked) | -2.28
O=C(CSCC(=O)N1CCCCC1)OCC(=O)c1c[nH]c2ccccc12 | -5.48
O=C(Nc1ccccc1)c1cccc(N2C(=O)C3C4C=CC(C4)C3C2=O)c1 (centres unmarked) | 7.97
CCNS(=O)(=O)c1ccc(NC(=O)Nc2ccc3c(c2)OCO3)cc1 | 6.69
Cc1ccc(S(=O)(=O)NCCCNS(=O)(=O)c2ccc(C)cc2)cc1 | -17.9
COc1ccccc1CN1CC(C(=O)NCCN2CCNC2=O)CCC1=O (centres unmarked) | 24.2
COc1cccc(N(CC(=O)NCCSc2ccc(Cl)cc2)S(C)(=O)=O)c1 | -9.08
CCc1ccc(OCC2c3cc(OC)c(OC)cc3CCN2C(=S)NC)cc1 (centres unmarked) | -10.3
Cc1ccc2c(c1)c1nnc(SCC(=O)Nc3cccc(Cl)c3C)nc1n2CC(=O)O | 19.6
COc1cccc(C(=O)Nc2ccc(N3CCCC3)cc2)c1 | 1.2
Cc1cccc(N(C(=O)Nc2ccc(Cl)cc2)C2=NCC(C)S2)n1 (centres unmarked) | 8.19
COc1cccc(OC)c1OCCNCCO | 21.5
O=C(NC(=S)Nc1ccccc1Cl)C1CC1 | 19.7
COC(=O)CSc1nc(COc2ccccc2)nc2ccccc12 | 9.88
CCOc1ccc(N2C(=O)CC(N3CCC(O)(c4ccc(Br)cc4)CC3)C2=O)cc1 (centres unmarked) | -49.1
Cc1ccc(S(=O)(=O)NCC(=O)N2CCC(C)CC2)cc1 | -0.855
COc1ccc([N+](=O)[O-])cc1NC(=O)C(C)N1CCCC1 (centres unmarked) | 13.3

SMILES | hERG current change (%, negative = inhibition) at 10uM [%]
COc1ccccc1OCCNC(=O)c1cccs1 | 1.32
CCOC(=O)c1c(-n2cnnn2)sc2c1CCCC2 | 8.13
Cc1ccc(-n2ncc3c(=O)n(CC(=O)Nc4cccc(Cl)c4)cnc32)cc1C | 10.6
CCOC(=O)C1(Cc2cccc(OC)c2)CCN(Cc2cccn2-c2nccs2)CC1 | -72
CC1CN(C(=O)COC(=O)c2ccc(O)cc2)CC(C)O1 (centres unmarked) | 17.4
Cc1cccc(-c2noc(CNC(=O)Nc3ccc(F)cc3)n2)c1 | 8.56
Cc1ccc(-c2noc(CN(C(=O)CCCCCN3C(=O)c4ccccc4C3=O)C(C)C)n2)cc1 | -15.3
Cc1cc(C)c2[nH]c(=O)c(C(c3nnnn3CC3CCCO3)N3CCCC(C)C3)cc2c1 (centres unmarked) | -12.5
COc1ccc(C2c3ccc(O)cc3Oc3ncn4nc(-c5ccco5)nc4c32)cc1OC (centres unmarked) | 22.8
Cc1csc(NC(=O)c2cn3ccccc3n2)n1 | -4.54
Cc1nnc(SCC(=O)NC2CCC(C)CC2)s1 (centres unmarked) | -6.69
CC(=O)Nc1c2c(nn1-c1cccc(Cl)c1)CS(=O)C2 (centres unmarked) | -1.6
O=S1(=O)CCOCCCN1Cc1ccccc1Br | 1.21
Nc1nc(NCC2CCCO2)nc(NCC2CCCO2)c1[N+](=O)[O-] (centres unmarked) | -10.7
O=S(=O)(c1ccc(-c2nnc(SCc3ccccc3)o2)cc1)N1CCCC1 | -3.26
Cc1cc(OCC(=O)NC2CCS(=O)(=O)C2)c2c3c(c(=O)oc2c1)CCC3 (centres unmarked) | -3.87
CC(=O)OC[C@]1(OC(C)=O)C[C@@]23CC[C@H]4[C@@](C)(CCC[C@@]4(C)C(=O)O)[C@@H]2CC[C@@H]1C3 | 4.84
Cc1c(C(=O)N2CCc3ccccc3C2)oc2ccc(S(=O)(=O)N3CCCCCC3)cc12 | -19.2
CCCCCCCCNC1=CC(=O)CC(C)(C)C1 | -48.2
O=S(=O)(Nc1ccc(N2CCOCC2)cc1)c1ccc2ccccc2c1 | 3.3
Cc1ccc(S(=O)(=O)c2cnc3cc(C)nn3c2N)cc1 | 0.694
Cc1coc2cc3oc(=O)c(Cc4ccccc4)c(C)c3cc12 | 6.78
COc1ccc(CN(C(=O)c2cccc(OC)c2)C2CCS(=O)(=O)C2)cc1 (centres unmarked) | -8.88

SMILES | hERG current change (%, negative = inhibition) at 10uM [%]
CCOC(CNc1ncnc2sc(-c3ccccc3)cc12)OCC | -11.5
CCN(CC)c1ccc2c(C)c(-c3ccc(N)cc3)c(=O)oc2c1 | 10.6
O=C1c2cccc3c(N4CCCCC4)ccc(c23)C(=O)N1c1ccc(O)cc1 | 18.6
Cc1ccc(OCCn2c(SCCO)nc3c(N)ncnc32)cc1 | -14.4
C(=N\NC(=Nc1ccccc1)c1ccccn1)/c1ccccn1 | 7.19
C#CCOc1c(Cl)cc(/C=C2/C(=O)ON=C2C)cc1OC | 22.3
O=C(O)C1C2C=CC(O2)C1C(=O)NCCC1=CCCCC1 (centres unmarked) | 7.94
O=C(COC(=O)C1CCC1)Nc1ccccc1Sc1ccccc1 | 7.34
Cc1ccc(CNS(=O)(=O)c2c(C(=O)N3CCCCC3)c(C)n(C)c2C)o1 | 22.1
Nc1nc2ccccc2n1CCOc1ccc(Br)cc1 | -61.2
CC(=O)Nc1ncc(Cc2cccc(Cl)c2)s1 | 9.03
CCOC(=O)c1sc(NC(=O)COC(=O)C(CCSC)NC(C)=O)nc1C (centres unmarked) | -14.7
CCCSc1nnc(NC(=O)c2sc3nc(-c4cccs4)ccc3c2N)s1 | 10
CC1CCN(c2ccccc2NC(=S)NC(=O)c2ccc(-c3cccc([N+](=O)[O-])c3)o2)CC1 | 3.63
COc1cccc(C2CC(c3cccc(Br)c3)n3ncnc3N2)c1 (centres unmarked) | -47.4
COC(=O)c1ccc(Cn2nc(-c3ccccc3)ccc2=O)cc1 | 4.93
Cc1cc(NC(=O)Cn2cc([N+](=O)[O-])cn2)n(Cc2ccc(F)cc2)n1 | -11.9
CCc1nc2ccc(F)cc2c(C(=O)NC2CCCCC2C)c1C (centres unmarked) | -4.83
S=C(Nc1ccccc1Cl)N1CCC(c2ccccc2)C1 (centres unmarked) | -2.34
COc1ccc2nc(NC(=O)CSc3nc4ccccc4o3)sc2c1 | 9.02
